Measurements from article PMC4336329 (PLoS ONE, 2015).
The campaign covered roughly 310,000 compounds. About 14,000 (4.5%) showed an effect of 50% or more. The effect is printed as a negative number. The list shows a part of the results.

target: human ether-à-go-go-related gene (hERG) potassium channel (human, UniProt Q12809); test: primary screen, population patch clamp on CHO cells stably expressing hERG
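Further: peak tail current of the secondary pulse compared with the same well before compound.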

Chain of human ether-à-go-go-related gene (hERG) potassium channel (Q12809 whole entry, looked up): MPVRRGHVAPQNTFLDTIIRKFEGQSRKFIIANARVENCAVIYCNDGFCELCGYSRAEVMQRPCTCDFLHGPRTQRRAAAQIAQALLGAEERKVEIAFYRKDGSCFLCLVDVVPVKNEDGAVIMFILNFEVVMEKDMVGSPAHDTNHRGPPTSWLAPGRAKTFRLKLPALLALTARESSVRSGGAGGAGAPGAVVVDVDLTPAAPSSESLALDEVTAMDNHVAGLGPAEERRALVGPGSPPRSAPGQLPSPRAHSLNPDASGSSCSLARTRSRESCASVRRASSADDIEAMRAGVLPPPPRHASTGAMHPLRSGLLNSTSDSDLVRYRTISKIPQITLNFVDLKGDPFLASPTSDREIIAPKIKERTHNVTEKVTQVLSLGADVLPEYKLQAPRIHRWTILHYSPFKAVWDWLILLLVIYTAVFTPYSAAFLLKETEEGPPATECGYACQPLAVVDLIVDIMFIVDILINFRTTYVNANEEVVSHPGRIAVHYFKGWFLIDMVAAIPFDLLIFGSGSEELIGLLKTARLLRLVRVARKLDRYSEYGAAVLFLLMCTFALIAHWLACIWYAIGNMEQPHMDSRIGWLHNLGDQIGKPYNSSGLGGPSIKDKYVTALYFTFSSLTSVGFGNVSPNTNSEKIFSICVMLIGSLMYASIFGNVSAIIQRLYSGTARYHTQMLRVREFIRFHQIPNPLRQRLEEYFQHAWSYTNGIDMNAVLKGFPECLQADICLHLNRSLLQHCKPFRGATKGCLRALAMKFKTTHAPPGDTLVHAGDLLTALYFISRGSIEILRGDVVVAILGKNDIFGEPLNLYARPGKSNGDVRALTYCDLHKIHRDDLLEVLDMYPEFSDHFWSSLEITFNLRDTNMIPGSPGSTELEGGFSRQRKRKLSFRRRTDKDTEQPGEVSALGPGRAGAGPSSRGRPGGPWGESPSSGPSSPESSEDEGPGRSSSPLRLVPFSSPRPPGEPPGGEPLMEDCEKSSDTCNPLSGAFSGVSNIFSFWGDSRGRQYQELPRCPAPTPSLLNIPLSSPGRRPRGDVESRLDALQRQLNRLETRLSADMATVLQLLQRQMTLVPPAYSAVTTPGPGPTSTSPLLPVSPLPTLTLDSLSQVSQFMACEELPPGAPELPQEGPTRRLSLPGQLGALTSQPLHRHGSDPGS

SMILES | hERG current change (%, negative = inhibition) at 10uM
O=C(Nc1ccncc1)c1cc(S(=O)(=O)N2CCOCC2)ccc1Cl | -46.6%
CN(C)S(=O)(=O)c1ccc(C(=O)Nc2cccc(S(=O)(=O)NC3=NCCC3)c2)cc1 | 1.88%
COc1cccc(-c2cccc(NC(=O)C3CCN(Cc4cnn(C)c4)CC3)c2)c1 | -15.6%
CCn1ccnc1CN(C)Cc1cn(-c2ccc(C)cc2)nc1-c1ccc(F)cc1 | -39.9%
CC(=O)c1c(C)[nH]c(C(=O)OCc2ccc(Br)cc2)c1C | 25.8%
COc1cc(C2CC(=O)NC3=C2C(=O)CC(C)(C)C3)cc(OC)c1O (stereo not shown) | 6.23%
Cc1cc(C(=O)COC(=O)c2ccc3c(c2)OCO3)c(C)n1CC1CCCO1 (stereo not shown) | -36.2%
O=C(N1CCCCC1)C12CC3CC(C1)CC(C(=O)N1CCCCC1)(C3)C2 | -5.13%
CCN(CC)C(=O)CN1C(=O)COCC1=O | 3.44%
C=CCSc1n[nH]c(=O)n1-c1cccc(C(F)(F)F)c1 | 11.1%
COc1ccc(S(=O)(=O)C(C#N)c2nc3ccccc3nc2N2CCCC(C)C2)cc1 (stereo not shown) | 13.9%
Cn1c(=O)n(C)c2cc(NS(=O)(=O)c3ccccc3)ccc21 | 4.09%
C=C[C@@](C)(O)CC[C@@H]1[C@@]2(C)CCCC(C)(C)[C@@H]2CC[C@@]1(C)O | -1.93%
CC(=O)NC(CCCCNC(=S)NC1CCCCC1)C(=O)O (stereo not shown) | 13%
Cc1ncc([N+](=O)[O-])n1CCOC(=O)Nc1ccc(Cl)c(Cl)c1 | 1.07%
CCCCn1nc2cc(C(=O)NC3CCCc4ccccc43)ccc2c1OCC (stereo not shown) | -15.1%
CC(=O)N1C(C(=O)O)CSC1c1cccc(C)c1 (stereo not shown) | 23%
CCCc1nnc(SCC(=O)NC2CC2)n1CC | 15.1%
CCOC(=O)C1=C(C)N=c2s/c(=C\C(=O)OC)c(=O)n2C1c1ccc(OC)cc1 (stereo not shown) | -1.94%
CN(C(=O)c1ccc(COc2ccccc2Cl)o1)c1ccccc1 | -10.8%
COc1ccc(NC(=O)CSc2nnc(C3CC3)n2C)cc1 | 23.7%
O=C(Cn1nnc(-c2ccccc2)n1)c1ccccc1 | 7.22%
Nc1ccccc1C(=O)N1CCc2ccccc21 | 9.65%
O=C(O)C1Nc2c(Cl)cc(Cl)c(Cl)c2C2C=CCC12 (stereo not shown) | 17.2%
Cc1ccc(OCCOC(=O)CN2C(=O)NC3(CCCC3)C2=O)cc1 | -2.01%
CN(C)c1ccc(/C=C(\NC(=O)c2ccccc2)C(=O)NCCN2CCOCC2)cc1 | -19.9%
COc1ccc(C(=O)C/C(=C\C(=O)c2ccc(C)cc2)c2ccccc2)cc1 | 9.82%
CN1CCN(S(=O)(=O)c2ccc(NC(=O)C3CCCCC3)cc2)CC1 | -11%

SMILES | hERG current change (%, negative = inhibition) at 10uM
NC(=O)CC(NC(=O)c1ccc(Br)cc1)c1ccc(N2CCC(Cc3ccccc3)CC2)c([N+](=O)[O-])c1 (stereo not shown) | -12.8%
COc1ccc(S(=O)(=O)NCCc2c[nH]c3ccc(Cl)cc23)cc1 | 14.5%
CCC(=O)N1N=C(c2ccc(NS(C)(=O)=O)cc2)CC1c1ccc(C)cc1 (stereo not shown) | -44.7%
COc1ccc(NC(=S)NCCc2c(C)[nH]c3ccc(OC)cc23)cc1 | 10.1%
CCOC(=O)c1ccc(NC(=O)c2ccco2)cc1 | 4.69%
Cc1ccc(C(=O)N2CCN(c3ccccc3F)CC2)cc1NC1=NC2CS(=O)(=O)CC2S1 (stereo not shown) | 20%
O=C(CSc1nc2ccccc2c(=O)n1CCCN1CCOCC1)Nc1cccc(S(=O)(=O)N2CCCCCC2)c1 | -72.2%
O=C(/C=C/c1ccccc1O)c1ccco1 | -6.37%
Cc1nn(-c2cccc(Cl)c2)nc1C(=O)Nc1cccc(C(=O)NC2CC2)c1 | -9.59%
O=C(C1COc2ccccc2O1)N1CCCC1 (stereo not shown) | 16.8%
O=[N+]([O-])/C(Cl)=C1\NCCN1Cc1ccc(Cl)nc1 | 16.8%
O=C(NCCC(=O)N1CCC2(CC1)NCCc1[nH]cnc12)c1ccc(F)c(F)c1 | 7.12%
CCCn1c(N)c(N(CCOC)C(=O)Cc2ccc(S(=O)(=O)N3CCOCC3)s2)c(=O)[nH]c1=O | 16.9%
CC[C@@H](CO)NC(=O)[C@@H]1C=C2c3cccc4c3c(cn4C)C[C@H]2N(C)C1.O=C(O)/C=C\C(=O)O | 13.3%
O=C(NNc1c2ccccc2nc2ccccc12)c1ccc(O)cc1 | 8.09%
COc1ccc(/C=C/C(=O)NCCc2nc3ccccc3[nH]2)cc1 | 26.4%
Clc1ccc(C2=CSC3=Nc4cccc5cccc(c45)N23)cc1 | 4.54%
COC(=O)/C=C/c1ccc2c(c1)OCO2 | 13.5%
Cc1cc(=O)n2[nH]c(SCc3c(F)cccc3Cl)nc2n1 | 6.2%
CCOC(=O)c1cc(CC)sc1NC(=O)c1ccc(N2CCOCC2)c([N+](=O)[O-])c1 | 3.76%
O=C(c1ccc(C(F)(F)F)cc1)N1CCN(c2ccc(N3CCOCC3)nn2)CC1 | -67.9%
COCCCN(C(=S)NC(=O)c1ccc(C(C)(C)C)cc1)c1c(N)n(Cc2ccccc2)c(=O)[nH]c1=O | 8.35%
Cc1cccn2c(=O)c3cc(C(=O)NC4CCS(=O)(=O)C4)n(Cc4ccccc4)c3nc12 (stereo not shown) | -4.36%
COCCNC(=O)C1CCC(Cn2c(=S)[nH]c3ccccc3c2=O)CC1 (stereo not shown) | 0.963%
O=C(O)/C=C/C(=O)Nc1ccc(N2CCOCC2)nc1N1CCOCC1 | 10.5%
Cc1cccc(C)c1NCc1n[nH]c(=S)n1-c1ccccc1 | 17%
CCc1ccc2oc(C(=O)NC3CCS(=O)(=O)C3)cc(=O)c2c1 (stereo not shown) | -4.81%
